# In PubChem BioAssay AID686971 (National Center for Advancing Translational Sciences (NCATS), 2013):
# The campaign covered roughly 360,000 compounds. About 7,500 (2.1%) were called active. The shares of active, inactive and inconclusive entries below differ from those in the screen. The call rests on the fitted dose curve; in most records, active means well fitted cell-killing curve with a large enough effect; inconclusive means small, poorly fitted or top-dose-only effect, or effect the other way, or another doubt; inactive means no such curve, though single readings can be large or run the other way. Potencies of inconclusive entries are left out as doubtful fits.
# Assay: qHTS for induction of synthetic lethality in tumor cells producing 2HG: qHTS for the HT-1080-IDH1KD cell line;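 on activity, negative = toxicity: 0% = DMSO wells and -100% = cell-free medium wells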
# Conditions: HT-1080 IDH1 knockdown viability, ATP luminescence, 48 h; activity, negative = toxicity: at 46.1 µM (top of the series) unless noted
# In short: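 Viability of IDH1-knockdown HT-1080 fibrosarcoma cells was assessed by CellTiter-Glo after 48 h at 37 °C with titrated compound; concentration-effect curves were classified by fit quality and response size.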
# Potency means the concentration at half of the fitted maximal effect; tags describe the fitted curve by direction and shape.
SMILES,Potency,"activity, negative = toxicity"
CCCCCC1(C)NC(=S)N(c2ccccc2)N1 (stereo not given),"inconclusive [cytotoxic, partial curve]",
O=C(Nc1ccc(Br)cc1Cl)c1cnccn1,"inconclusive [cytotoxic, single point]",
Cc1ccc(S(=O)(=O)CCC(=O)OC2CC(C)OC2=O)cc1 (stereo not given),inactive,
COc1cc(OC)c(N(C)S(=O)(=O)c2cccc(C(=O)Nc3nccs3)c2)cc1Cl,,inconclusive: -32.4% [cytotoxic]
O=C(NN=Cc1c(O)ccc2ccccc12)C1CC1,active: 11.6 µM,
CCOC(=O)C1CCCc2c1[nH]c1ccc(Cl)cc21 (stereo not given),"inconclusive [cytotoxic, partial curve]",
COc1ccc(-c2ccc(C(=O)NC3CCCCC3)c3occc23)c(C)c1,"inconclusive [cytotoxic, single point]",
c1ccc(COc2ccc(-c3cc4nc(NCCCn5ccnc5)ccn4n3)cc2)cc1,"inconclusive [cytotoxic, single point]",
CCc1nc(N2CCN(C(=S)NCCCOC)CC2)c2c3c(sc2n1)CCCC3,inactive,
Cn1c(SCc2ccc(Br)cc2)nc2ccccc2c1=O,inactive,
CN(C)CCCNc1oc(-c2cccc(Cl)c2)nc1C#N,"inconclusive [cytotoxic, single point]",
O=C(Nc1ccc(O)cc1)c1ccc(NC(=O)c2ccco2)cc1,active: 13 µM,
Cc1cc(C)cc(C(=O)N/N=C/c2ccoc2)c1,"inconclusive [cytotoxic, single point]",
CCC(CO)Oc1cc(NCc2ccc(C(C)(C)C)cc2)c2ncn(C(C)C)c2c1 (stereo not given),"inconclusive [cytotoxic, single point]",
CCNC(=O)C1(C)CCCN1C(=O)c1ccc(C#N)cc1 (stereo not given),"inconclusive [rising, single point]",
O=C(c1ccccc1)c1cc(Cl)ccc1N1C(=O)C=CC1=O,active: 23.1 µM,
CC(=O)/C=C/c1ccccc1Oc1c(F)c(F)nc(F)c1F,"inconclusive [cytotoxic, single point]",
Cc1ccc(C)c(S(=O)(=O)C(C#N)c2nc3ccccc3nc2N2CC(C)OC(C)C2)c1 (stereo not given),"inconclusive [cytotoxic, partial curve]",
COc1ccc(NC(=O)Cn2nnc(-c3ccccc3)c2COc2ccc3ccccc3c2)cn1,"inconclusive [cytotoxic, single point]",
COc1ccc(-n2nnnc2C(c2ccnc3ccccc23)N2CCN(C/C=C/c3ccccc3)CC2)cc1 (stereo not given),"inconclusive [cytotoxic, single point]",
O=C(c1ccccc1)N1CCN(CC(O)COc2ccc(Br)cc2)CC1 (stereo not given),,inconclusive: 0.142%
CC(C)c1ccc2c(c1)C(N1CCNCC1)Cc1ccc(F)cc1S2 (stereo not given),"inconclusive [cytotoxic, single point]",
CCCNC(=O)[C@@H]1CCCN1C(=O)[C@@H]1Cc2ccccc2CN1,inactive,
O=C(CNC(=O)C(c1ccccc1)c1ccccc1)N/N=C/c1ccc(O)cc1O,active: 7.31 µM,
COc1ccc(-c2csc(NC(=O)CSc3nc4ccccc4c(=O)[nH]3)n2)cc1,active: 16.4 µM,

SMILES,Potency,"activity, negative = toxicity"
CN(C)c1ccc(C(=S)N2CCCC2)cc1Br,"inconclusive [rising, partial curve]",
Brc1ccc(-c2c[n+]3c(n2-c2ccccc2)SCC3)cc1,"inconclusive [cytotoxic, single point]",
CC(=O)NO,inactive,
COc1ccccc1C1CC(=O)Nc2cc3c(cc21)OCCO3 (stereo not given),active: 1.78 µM,
CCc1ccc(OS(=O)(=O)c2cn(C)c(=O)n(C)c2=O)cc1,inactive,
C#CCOCCOCCOCCNc1nc(N2CCN(C(=O)[C@H](Cc3cc4ccccc4[nH]3)n3cc([C@@H](N)CC(C)C)nn3)CC2)nc(N2CCN(C(=O)[C@H](Cc3cc4ccccc4[nH]3)n3cc([C@@H](N)CC(C)C)nn3)CC2)n1,inactive,
COc1ccc(NC(=O)C2CCN(c3nc(C)nc4c3CCC4)CC2)cc1,inactive,
Cc1ccc(C#N)c(SCc2ccccc2F)n1,inactive,
CNC(C)C(=O)NC(C(=O)NC(C)C(=O)NNc1ccccc1)C(C)C (stereo not given),"inconclusive [cytotoxic, partial curve]",
Cc1ccc(S(=O)(=O)N(C(=O)c2ccncc2)c2ccc(OC(=O)c3ccncc3)c3ccccc23)c(C)c1,"inconclusive [cytotoxic, single point]",
Cc1cccc(N2CCN(C(=O)c3cccc(S(=O)(=O)N4CCCCC4)c3)CC2)c1C,"inconclusive [cytotoxic, single point]",
CC(C)CCn1c(=O)c2ccccc2c2ccccc2c1=O,inactive,
CN(C)CC/C=C1\c2ccccc2CSc2ccccc21,"inconclusive [cytotoxic, single point]",
Cc1cc(C)c2c(c1)/C(=c1/sc3n(c1=O)CN(c1ccccc1)CN=3)C(=O)N2,,inconclusive: 14%
Cc1ccc2c(c1)S/C(=C/c1ccc[n+](CCO)c1)N2C,"inconclusive [cytotoxic, partial curve]",
O=C(CCN1C(=O)c2ccccc2C1=O)NCc1ccc(Cl)cc1,inactive,
O=C(N/N=C/c1cccc(O)c1)c1cc(-c2ccc3c(c2)OCO3)n[nH]1,"inconclusive [cytotoxic, partial curve]",
Oc1ccc(/C=C/c2ccnc3ccccc23)cc1,"inconclusive [cytotoxic, single point]",
C=CCc1c(C)c(C#N)c2nc3ccccc3n2c1N1CCCCC1,inactive,
CN1CCN(C(=O)C23CCC(C)(c4nc5ccccc5nc42)C3(C)C)CC1 (stereo not given),inactive,
COc1ccc(N2CCCn3c2nc2c3c(=O)n(Cc3ccccc3F)c(=O)n2C)c(OC)c1,inactive,
CCc1cc(C(=O)Nc2nc(-c3ccccn3)cs2)sc1C,"inconclusive [cytotoxic, single point]",
O=C(C1CCN(S(=O)(=O)c2ccccc2F)CC1)N1CCN(Cc2ccc3c(c2)OCO3)CC1,inactive,
Cc1ccc2nc(-c3ccc(O)c(O)c3)cn2c1,"inconclusive [cytotoxic, single point]",
CCCC(=O)Nc1c2c(nc3ccccc13)N(c1ccccc1)CC2,active: 25.9 µM,

SMILES,Potency,"activity, negative = toxicity"
O=S(=O)(CC(CN1CCCCC1)N1CCCCC1)c1ccccc1 (stereo not given),,inconclusive: -35.2% [cytotoxic]
Cc1cc(C)cc(Cn2c3ccc(NC(=S)NCc4ccccc4F)cc3c(=O)n2C)c1,"inconclusive [cytotoxic, single point]",
CC(C)n1cc(CN2CCC(C(=O)Nc3cccc(-c4cccc(Cl)c4)c3)CC2)cn1,"inconclusive [cytotoxic, single point]",
COc1ccc(-c2nc3ncccn3c2Nc2ccccc2)cc1,inactive,
COc1ccc2oc(=O)c(C(=O)NCc3ccccc3)cc2c1,inactive,
Clc1ccc(-c2nc3ccc(Cl)cn3c2Cc2cccc(Cl)c2)cc1,"inconclusive [cytotoxic, single point]",
Cc1[nH]n(-c2ccccc2)c(=O)c1/C=N/N1C(=O)c2ccc3c4c(ccc(c24)C1=O)CC3,"inconclusive [cytotoxic, partial curve]",
COc1ccc(-c2cc(N)n(S(=O)(=O)c3c(F)c(F)c(F)c(F)c3F)n2)cc1OC,active: 3.98 µM,
Cc1ccc(NC(=O)c2cc(S(=O)(=O)N3CCOCC3)c(Br)s2)cc1,"inconclusive [cytotoxic, partial curve]",
O=C(O)C1CSC(c2coc3ccccc3c2=O)N1 (stereo not given),"inconclusive [cytotoxic, single point]",
COc1cc2c(cc1OC)CN(CC(=O)Nc1ccccc1C#N)CC2,inactive,
CCOc1ccc(NC(=O)CCC(=O)Oc2ccc(C)cc2)cc1,inactive,
CC1(C(=O)Nc2cccc(Oc3ccccc3)c2)Cc2c(-c3ccccc3)ccnc2O1 (stereo not given),"inconclusive [cytotoxic, partial curve]",
COc1ccccc1Cc1c(C(C)(C)C)nc2c3ccccc3ccn12,active: 13 µM,
O=c1ccc(N=Nc2ccccc2)ccc1O,"inconclusive [cytotoxic, single point]",
Cc1ccc(/C=C/C(O)=C2/C(=O)N(C)C3(C)CC2c2ccccc2O3)cc1 (stereo not given),"inconclusive [cytotoxic, single point]",
O=C(Nc1cnn(Cc2ccc(Cl)cc2)c1)C1CCCC1,inactive,
COc1cc(OC)cc(-c2nc3ccccc3s2)c1,"inconclusive [cytotoxic, single point]",
CC(=O)N1CCC(O)(c2cccc(C(F)(F)F)c2)CC1,inactive,
O=c1[nH]sc2ccccc12,"inconclusive [cytotoxic, single point]",
CCCCCOC(=O)Nc1ccc(S(=O)(=O)Nc2cccc([N+](=O)[O-])c2)cc1,"inconclusive [cytotoxic, single point]",
CCOC(=O)CCCNC(=O)CSc1nc2ccc(OCC)cc2[nH]1,"inconclusive [rising, full curve]",
Cc1ccc([N+](=O)[O-])c(C(=O)N/N=C/c2cccs2)c1,inactive,
CCCc1ccc(-c2cc(NC(=O)CSc3n[nH]c(N)n3)n(-c3ccccc3)n2)cc1,"inconclusive [cytotoxic, single point]",
COC(=O)[C@@H]1C[C@]2(OC(=O)c3ccccc3)C=CC(=O)C[C@@H]2N1C(=O)OCc1ccccc1,"inconclusive [cytotoxic, single point]",
